# Some compounds were tested as several samples or in several runs, with calls that do not always agree.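 Testing used 96-well plates and a 48-hour single-concentration exposure. Example: -40 means 40% of the starting cells died.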 A number of entries come with more than one value. Only these are listed. How the source made its calls: active means growth percent below 10; inactive means the rest. The source may hold further records. The screen tested this drug many times, at its own concentration, as given; each value is one run. Marks such as (2×) give the number of equal values in this list.
# Tested on: UACC-257 melanoma
# Assay: NCI-60 one-dose screen, 48 h (100 = growth as untreated, 0 = no growth, -100 = all killed)
# Conditions: 0.25 µM
smiles,measurement,setting,value
COc1cccc2c1C(=O)c1c(O)c3c(c(O)c1C2=O)C[C@@](O)(C(=O)CO)C[C@@H]3OC1CC(N)C(O)C(C)O1 (stereo not given in full),growth,runs of 2006,inactive: 28.3% and active: -21.1%
same,growth,runs of 2007,"inactive: 30.1, 43.4 (2×), 26.9, 48.8, 49.1, 57.6, 43.9, 42.3, 52.6, 50.5, 58.8, 61.3, 64.6, 16.5, 63.3, 47.5, 40.4, 55, 37.6, 23.7, 59.6, 29.9, 69.1, 49.4, 72.6, 31.6, 43.3, 66, 55.9, 16.1, 39.3, 26.8, 52.4, 73, 65.9, 60.4, 71.3, 83.4% and active: 8.15%, 3.72%"
same,growth,runs of 2008,"inactive: 85.1, 23.6, 25.2, 52.6, 75.9, 49.5, 38.5, 54, 58.8 (2×), 77.6, 10.9, 46.9, 13.2, 60.2, 52.7, 30.6, 47.3, 15.4, 12.7, 45.9, 36.2 (2×), 54.6, 97.2, 54.8, 45.4, 32.6, 36.9, 27.2, 36.6, 29.1, 26.1, 29, 51.2, 52.9, 25.6, 26.6, 66, 41.5, 61.8, 65.4, 54.3, 51.4, 69.1, 44.4, 18.4% and active: 3.31, 3.36, 2.36, -2.34%"
same,growth,runs of 2009,"inactive: 63.1, 60.2, 53.1, 47.1, 67.7, 81.2, 84.7, 61.1, 69.3, 65.2, 80, 69.7, 61.8, 57.8, 69, 68.3, 65.9, 70.8, 68, 55.8, 50.5, 45.7, 37.2, 46.2, 35.5, 34, 23.3, 33, 41.7, 33.9, 30, 24.9, 18.1, 30.8 (2×), 29.5, 35.3, 54.9, 39.2, 40.6, 26.4, 36.5, 38.8, 38.2, 56.6, 64.9, 35.6 (2×), 47.2, 26.8, 47.3, 36.2, 46.6, 21.7, 19.1, 32.1, 47.8, 62.8, 43.4, 32.3, 30.7, 53.5, 11.9, 46.1, 39.4, 33.3, 33.5, 43.1, 46.4% and active: 3.7%, 7.02%"
same,growth,runs of 2010,"inactive: 49.8, 44.6, 43.7, 37, 31.7, 50.7, 41.1, 48.2, 34.7, 50.1, 44 (2×), 33.9 (2×), 37.2, 46.6, 34.8, 23.9, 27.5, 55.8, 26.7, 27.2, 39, 52.5, 49.7, 29.2, 36.9, 48, 46.2, 44.2, 36.2, 21.7, 28.2, 44.5, 54.2, 54, 55.7, 62, 55.9, 50.3, 47.7 (2×), 50.4, 46.9, 40.9, 42, 43.2, 28.1, 36.1, 47.4, 47.1, 33.6, 43.1, 41.9%"
same,growth,runs of 2011,"inactive: 50.4, 40.7, 48.7, 45.9, 47.5 (2×), 49.3, 41.2, 30.8, 43.2, 30.4, 61.8, 43.4, 48.6, 66.3, 59.1, 67 (2×), 61.6, 67.7, 64.5, 62.8, 57.3 (2×), 63, 63.3, 65.5, 68.7, 61.1, 54.6, 70.4, 64.6, 50.8, 46, 60.2, 34.4, 40.6, 32.4, 69.5, 45.5, 50.1, 40.5, 35.8, 48, 51.2, 42.5, 64.9, 56.6 (2×), 42.1, 55.4, 66.4, 67.2, 48.2, 47.2, 46.8%"
same,growth,runs of 2012,"inactive: 39.7, 33.7, 31.2, 38.5, 35.7, 34.9, 42.6, 51.4, 25.9, 15.6, 33.1, 31.5, 35.5, 31.4, 32.4, 13.7, 21.7, 40.8, 20.7, 32.3, 44.4, 45.9 (3×), 60.1, 54.8 (2×), 48.8, 46.8, 58.3, 57.3, 47.2 (2×), 55.6, 46.7, 51.8, 50.3, 61.7 (2×), 69.2, 63.1, 33.8, 17.4, 44.2, 61.8, 62.2, 52.7, 67.6, 65.2, 40.2, 41.3, 49.5, 55.8, 55.3, 45.4, 58.5, 71.4, 54, 40.7, 56.5, 42.9, 36.6% and active: 9.14%, 7.3%"
same,growth,runs of 2013,"inactive: 39.7, 42.2 (2×), 52.3, 59.5, 52.9, 73.1, 47.5 (2×), 42.7, 44.5, 64.7, 50.7 (3×), 43, 72.6, 56.5, 54.3, 49.2, 62.8, 61.7, 49.5, 55.8, 57.7, 62.5, 65.1, 57.3 (2×), 71, 77.2, 82, 59.8 (2×), 55.3, 50.6, 58, 60.1, 57.2 (2×), 60, 59, 50.1 (2×), 56.2, 66.8, 61.3 (2×), 55.6, 63.2, 38, 50.8, 63.8, 41.3, 52.1, 39.9 (2×), 45.9, 43.6, 42.3, 40.7, 32.7%"
same,growth,runs of 2014,"inactive: 50.3 (2×), 51.9, 54.6, 46, 43.4, 50.2, 48.2 (2×), 35.7, 43.3, 41.4, 60.5, 52.3, 47.2, 51.2, 59.2, 50.8, 49.7, 57.3, 55.5, 49.2, 45.5, 44.7, 56.8, 58.8, 55.3, 59.4, 56.1, 57.7, 58.9, 53.5, 58.4, 60.9, 57.8, 46.9, 47.1, 48.5 (2×), 47.4, 55, 42.2, 41.3, 38.3, 41.5, 39.1, 56.9, 38, 59.1, 32, 42.6, 48.3, 45, 50.1, 56.5, 55.7, 54.2, 47.6, 21.2, 40, 34.5, 37.8, 43.8, 52.2, 45.4, 34.8, 28.4, 41.6, 28.8, 39.2%"
same,growth,runs of 2015,"inactive: 49.1 (2×), 40.9 (2×), 32.6 (2×), 46.9, 38.3, 40.8, 46, 39.6 (2×), 33.2, 38.8, 45.6, 34.3, 22.7, 23.2, 35.7, 29.9, 28.5, 47.3, 40.3, 47.8, 33.7, 38.7, 42.3 (2×), 29.6, 34.6, 30.8 (2×), 47.5, 24.8, 45.9, 41.1 (2×), 35.4, 40.5, 44.4, 39.9, 39.7, 34.8, 48, 50.5, 47.2, 55.9, 48.1, 55.5, 58.2, 46.4, 50.1, 52.7, 44.1, 57.9, 46.2, 53.6, 46.7%"
same,growth,runs of 2016,"inactive: 51.9, 46.7, 48.8, 58.9, 50.9 (2×), 62.7 (3×), 61.7, 48, 36.6, 42, 44.4, 35 (2×), 40.7, 48.7, 47.6 (2×), 36.5, 35.4, 46.8, 43.1, 44.9, 43.4, 22.8, 37.3, 37.9, 40.2, 40.1, 47.3, 44.6, 46.6, 50.5, 52.7, 63.5 (2×), 49.1, 60, 61.2, 53.2 (2×), 57.2, 56.2, 59.2, 57.6, 59.7, 59.8, 65, 54.6 (2×), 65.2, 68, 62, 61, 51.2, 55.3, 48.5, 55.1 (2×), 61.5, 52.9, 61.4, 64.2, 70.8, 63.2, 55.9, 58.7, 56.1, 58.3, 61.1, 63, 65.1, 72.1, 62.5%"
same,growth,runs of 2017,"inactive: 54.2 (2×), 53.3 (3×), 46.1, 67.3, 52.6, 46.2 (3×), 50.8, 42 (2×), 44.6, 44.1, 35.3, 49.7, 49.3 (2×), 48.2 (2×), 46.4, 42.4, 41.1, 43.6, 44 (2×), 48.6 (2×), 47.7 (2×), 47.1, 47.6, 54.6 (2×), 35.4, 52.9, 55.1, 52.4, 57.6, 57.7, 49.4, 46, 52.3, 48.1, 56.7, 43.9, 55.9, 49.5, 42.6, 51.5, 46.7, 43.3, 47.8, 54.8, 49.8 (3×), 53.1, 48.7, 43, 48.8, 38.7, 50.7, 46.9, 51.2, 52.7, 56, 45, 40.5, 56.9, 47.3, 45.2, 48.5, 50.6%"
same,growth,runs of 2018,"inactive: 46.6, 41.9, 47.7, 42.7, 53.6, 55.5, 49.8 (2×), 48 (2×), 48.2, 43.4 (2×), 46.3, 47.5, 48.5, 55.8 (2×), 56.4 (2×), 52.1 (2×), 49.5, 52.6, 51.2, 43.8 (2×), 51.5 (2×), 43.7, 43.6, 46.9, 50.5, 44, 41.4, 52.9, 48.3, 44.1, 57.6 (2×), 50.3, 46.8, 53.1, 52.7, 44.2, 49.1, 37.5, 43.1, 23.4, 27.8%"
same,growth,runs of 2019,"inactive: 37.7, 23.8, 30.8, 32.5, 29.2, 35, 27.2, 29.1, 41.3, 43.7, 33.6, 42.4 (2×), 49.8, 52.7, 47.2, 37.5, 51.6, 47.4, 47.1, 46.9, 34.5, 54.3 (2×), 57.8, 46, 34.8 (2×), 56.1, 40.8, 43.1 (2×), 40.5 (2×), 46.7, 41.7, 43.4, 48.2, 42.8 (2×), 47.3 (2×), 37.8, 49.7, 47.7, 44.7, 44.1, 40.3, 38.2%"
same,growth,runs of 2020,"inactive: 31.1, 35.3, 36.5, 40.8 (2×), 43.8 (2×), 44.4, 44.3, 46.5, 42.4, 50.8, 42.5, 44.1, 54.3, 47.8, 60, 47.2, 43.9, 48.9, 53.4, 57.6, 54, 48.5%"

# Source: PubChem BioAssay (NCI)
